Variants at the background level are over-represented here.
B1: TPR 5TU (parent)
chain: GGAUCUUCUCGAUCUAACAAAAAAGACAAAUCUGCCACAAAGCUUGAGAGCAUCUUCGGAUGCAGAGGCGGCAGCCUUCGGUGGCGCGAUAGCGCCAACGUUCUCAACUAUGACACGCAAAACGCGUGCUCCGUUGAAUGGAGUUUAUCAUG

Variants of: B1
Experiment: polymerase ribozyme fitness, log enrichment relative to wild type (log ratio); higher = more active; in vitro selection for triplet polymerase activity
How it was run: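 Mutant libraries of both subunits of a heterodimeric triplet polymerase ribozyme were PCR-built, transcribed, and selected once in triplicate, with frozen incubation at −7 °C and capture of gel-excised extended constructs on streptavidin beads before RT-PCR. Illumina sequencing of input and output libraries was filtered to genotypes with ≥10 input reads and ≥1 read per output. Fitness is the logarithm of genotype enrichment over wild-type enrichment, using inverse-variance-weighted replicate averages. The logarithm is base 2.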

Row | Variant | polymerase ribozyme fitness (log ratio)
1 | A22G C95U C132G G141C C149U | ≤ -4.2
2 | A22G G25C A26C U55G G86U A106C C108U A122U U148A | ≤ -4.2
3 | A22G G42C A47G G94C C114U A120U | ≤ -4.2
4 | A22G G46C C54G U55G U56G G58C U77G G86C G124C | ≤ -4.2
5 | A22G G46U C93U A97U G136U | ≤ -4.2
6 | A22G G48A U53G C54G A60U C85G C129G | ≤ -4.2
7 | A22G G50U C51U G92A U151C | ≤ -4.2
8 | A22G G59A | -0.246
9 | A22G G86C | -1.67
10 | A22G G88A A91U | ≤ -4.2
11 | A22G G92U C103U C108G G133C | ≤ -4.2
12 | A22G U33C C87A G92A C103A G128A U144G | ≤ -4.2
13 | A22G U44A G50U G83U A89G G94C G136C U139G | ≤ -4.2
14 | A22G U44A G59A C69A C108G | ≤ -4.2
15 | A22G U78A C85U A97C U111C C123A | ≤ -4.2
16 | A22U A23C C27G C63U C87U A89G C129A | ≤ -4.2
17 | A22U A23G G50A G86A C116G U130G C131G | ≤ -4.2
18 | A22U A23U G34C C95U C105U A107U C108G A115U A120U A142U A147G | ≤ -4.2
19 | A22U A24U G25U U44A C54A C93G C96U C116U G141C | ≤ -4.2
20 | A22U A26C A41U C54U U78G A91U G100A C105U A150G | ≤ -4.2
21 | A22U A26C G62C C87A C116G A147U | ≤ -4.2

Row | Variant | polymerase ribozyme fitness (log ratio)
22 | A22U A26G A30C U61G G68A C76A G81A A106G U135G | ≤ -4.2
23 | A22U A26G C85U C93A | ≤ -4.2
24 | A22U A26U G50C C54A A91C | ≤ -4.2
25 | A22U A28C G50C U55A | ≤ -4.2
26 | A22U A28G G80C C99U C108A G140C | ≤ -4.2
27 | A22U A28U G58C U61G G84A U134A | ≤ -4.2
28 | A22U A28U U33G G58U G81A A107G G126U A137C A142G | ≤ -4.2
29 | A22U A28U U45G G50U C103G | ≤ -4.2
30 | A22U A29G G68A G88U A91U G112C | ≤ -4.2
31 | A22U A29U U55C C63G U134G | ≤ -4.2
32 | A22U A30G G46C G50C A52C U55G G83A G94A | ≤ -4.2
33 | A22U A30G G86U G117C A147U | ≤ -4.2
34 | A22U A30U C32A U78G G88A G117U U139G | ≤ -4.2
35 | A22U A37G A52G A64G G124A C129A | ≤ -4.2
36 | A22U A37U A41G G86A C108G C116A A142G | ≤ -4.2
37 | A22U A39G A49C C79A A137C | ≤ -4.2
38 | A22U A39U A49C C57A G62A A66C U82G U109A G141C | ≤ -4.2
39 | A22U A39U C93G | ≤ -4.2
40 | A22U A40G G84A A119G | -2.75
41 | A22U A41C G42A A60G A98G C125G | ≤ -4.2
42 | A22U A41G G46C A49C C85A C95U A119U U130A G140U U151C | ≤ -4.2

Row | Variant | polymerase ribozyme fitness (log ratio)
43 | A22U A41G G81A C87U C99U A119G G152A | -2.3
44 | A22U A47U A49G G133C A142U | ≤ -4.2
45 | A22U A47U C96U U148A | -4.14
46 | A22U A47U G59U C72G G80A | ≤ -4.2
47 | A22U A49C C69G G70C U101A | ≤ -4.2
48 | A22U A49G C54U C85U | -0.721
49 | A22U A52G A91C U135G | ≤ -4.2
50 | A22U A66U G80C U82A C118U U139A C149A | ≤ -4.2
51 | A22U A73C A91G A138U | ≤ -4.2
52 | A22U A97G A122G | 0.332
53 | A22U A120G U144A | 0.42
54 | A22U C32G G62A G86U C87U C108U G126U | ≤ -4.2
55 | A22U C32U A47U U55A C96G A97U G133U U134C U135G | ≤ -4.2
56 | A22U C35U A47U G59U G67A C132A G136U | ≤ -4.2
57 | A22U C36A C57A C96U G124A C129U | ≤ -4.2
58 | A22U C36U G94U A121G U148A | ≤ -4.2
59 | A22U C38U G58C A66G C75U A97G G136C | ≤ -4.2
60 | A22U C43A C51A G84A A107U A119U | ≤ -4.2
61 | A22U C54U G81A G83A U90A C95U G141C | ≤ -4.2
62 | A22U C57A C96G A97U C118G A119C | -2.85
63 | A22U C57G G58A C93G | ≤ -4.2

Row | Variant | polymerase ribozyme fitness (log ratio)
64 | A22U C63G U82G C87A | ≤ -4.2
65 | A22U C69A A91U | ≤ -4.2
66 | A22U C76G | ≤ -4.2
67 | A22U C76U U102G | -3.01
68 | A22U C87G | ≤ -4.2
69 | A22U C93G C96A A121C | ≤ -4.2
70 | A22U G25A A41C A91G G94C | ≤ -4.2
71 | A22U G25U A39U G92A C149U | ≤ -4.2
72 | A22U G46C C114U | -3.67
73 | A22U G48C G68C C85U G152U | ≤ -4.2
74 | A22U G50A G62U U77A C93A G133A U151C | ≤ -4.2
75 | A22U G58A A60C U111A | ≤ -4.2
76 | A22U G58A G74A U90A | ≤ -4.2
77 | A22U G59A | -0.47
78 | A22U G59U G86A A121G A138U | ≤ -4.2
79 | A22U G70C C129A U135G | ≤ -4.2
80 | A22U G81A C93G | ≤ -4.2
81 | A22U G86U A120U | -1.56
82 | A22U G88C A89C C108U G141U | ≤ -4.2
83 | A22U G88U C116A A119U | -4.1

Source: the RNAGym collection of RNA variant scans (doi:10.1073/pnas.2313332121)
